Consider 58 compounds from PubChem BioAssay AID463173 (ICCB-Longwood Screening Facility, Harvard Medical School, 2010).

Structures are written as SMILES. Out of some 52,000 compounds screened, about 4,300 (8.3%) were called active. No stated cut-off is given here; in the data, active means survival mostly below about 52% (no sharp cut-off); inactive means mostly above about 56%. Some of the results follow.

This experiment relates to DeltatarO mutant. As to the kind of experiment: growth inhibition of S. aureus wild type versus tarO mutant, primary screen, teichoic acid synthesis inhibitors, RN4220, OD600 (AID 463173). Conditions: OD600, 18 h, stronger effect = lower value, screened at 18.75 µg/mL (by protocol).
In the case of `COc1ccc(C(=O)NCCn2cc(SCC(=O)Nc3ccc4c(c3)OCCO4)c3ccccc32)cc1`, the survival is inactive: 153%.

As for `N#C/C(=C(/O)CCCN1C(=O)c2ccccc2C1=O)c1nc2ccccc2[nH]1`, the survival is inactive: 95%.

Take `COC(=O)c1ccc(NC(=O)c2c(NCc3cccc(F)c3)sc3c2CCCC3)cc1`: the survival is inactive: 78%.

For `Cc1cc2c(cc1S(=O)(=O)N(CCN(C)C)Cc1ccccc1)OCC(=O)N2`, the survival was inactive: 102%.

Take `COc1ccc(-c2noc(CNC(=O)c3cc(OC)c(OC)c(OC)c3)n2)cc1`: the survival is inactive: 55%.

Turning to `CC1CCc2onc(C(=O)Nc3ccc(Cl)cc3)c2C1` (stereo not drawn), the survival is inactive: 75%.

For the compound `Cc1[nH]c2ccc(C(=O)NCCCN3CCCCC3)cc2c1C`, the survival is inactive: 105%.

Turning to `CCCN(c1ccccc1F)S(=O)(=O)c1ccc2c(c1)C(C)(C)C(=O)N2C`, the survival is inactive: 79%.

Take `CC(=O)N1CCC(N(Cc2ccc(C)o2)C(=O)Nc2ccccc2F)CC1`: the survival was inactive: 89%.

As to `Cc1nc2c(c(C)c1CCC(=O)NCc1ccc(F)cc1)c(=O)n(C)c(=O)n2C`, the survival was inactive: 95%.

`CCOc1ccccc1NC(=O)CSc1c2c(nc3ccc(Cl)cc13)CCCC2`: the survival was active: 45%.

Take `COc1ccc(S(=O)(=O)N(CC(=O)NCCSc2ccc(C)cc2)c2ccc(C)cc2)cc1`: the survival is inactive: 127%.

With `CCc1c(-c2ccccc2)nc2ccccc2c1C(=O)NC(C)c1ccccc1` (stereo not drawn), the survival was inactive: 63%.

Take `CCOC(=O)C1CCCN(S(=O)(=O)c2cc(-c3onc(C)c3C)ccc2OC)C1` (stereo not drawn): the survival is inactive: 83%.

On to `CCOc1ccccc1NC(=O)c1nc(S(=O)(=O)Cc2cccc(C)c2)ncc1Cl`, for which the survival was inactive: 66%.

As to `Cc1ccc(-c2nc(S(=O)(=O)c3ccc(F)cc3)c(N3CCN(c4ccccc4)CC3)o2)cc1`, the survival was inactive: 72%.

Consider `CC(C)C[C@H](N)c1nnc(SCc2ccc(Cl)cc2Cl)o1`, for which the survival is active: 38%.

Regarding `C/C(=N\NC(=O)COc1ccccc1)C1C(=O)c2ccccc2C1=O`, the survival was inactive: 80%.

Turning to `Cc1ccccc1Nc1nn2c(=O)c3ccc(C(=O)NCC(C)c4ccccc4)cc3nc2s1` (stereo not drawn), the survival was inactive: 66%.

On to `CC1=C(c2ccc(C(C)C)cc2)S(=O)(=O)N=C1N1CCN(c2ccccc2F)CC1`, for which the survival was inactive: 85%.

`CCOc1ccccc1NC(=O)Cn1nnc(C(=O)NCc2cccs2)c1N`: the survival was inactive: 94%.

Consider `OCCN1C2=NCCCN2c2ccccc21`, for which the survival is inactive: 88%.

As for `COc1ccc(NCc2cc3cc4c(cc3n(CC(=O)Nc3ccc(C)cc3C)c2=O)OCO4)cc1`, the survival is inactive: 87%.

Take `CCOc1c(Br)cc(C2C=C(C(=O)O)Nc3ncnn32)cc1OC` (stereo not drawn): the survival was inactive: 101%.

Turning to `CC(=O)N1c2ccccc2C(=O)C1N1CCN(c2ccc(Cl)cc2)CC1` (stereo not drawn), the survival was inactive: 71%.

For the compound `O=C(NCc1ccccc1)c1cc(Sc2cccc(Cl)c2)nc2ccccc12`, the survival is inactive: 88%.

As to `CCOC(=O)c1cc(OC(=O)c2ccccc2F)n(-c2ccccc2)n1`, the survival is inactive: 65%.

Regarding `COc1ccccc1CNC(=O)C(=O)NCC(c1ccco1)S(=O)(=O)c1cccs1` (stereo not drawn), the survival is inactive: 103%.

In the case of `O=C(NC1CCCCC1)c1cc2c(Cl)nc3ccccc3c2s1`, the survival was inactive: 80%.

For the compound `CCn1cnc2sc(C)c(C)c2c1=O`, the survival is inactive: 94%.

Regarding `Cc1cccc(-c2noc(CN(C(=O)COc3ccc(Br)cc3C)C(C)C)n2)c1`, the survival was active: 45%.

Turning to `CCn1cc(C(=O)N2CCN(c3cc(C)ccc3C)CC2)c(=O)c2cc(S(=O)(=O)N3CCOCC3)ccc21`, the survival was inactive: 89%.

As to `CCn1c(=O)n(CC)c2cc(N3CCCCC3)c(NC(=O)Nc3cc(C)cc(C)c3)cc21`, the survival is inactive: 100%.

For `COc1ccc(Cl)cc1NC(=O)Cn1c(=O)n(Cc2ccco2)c(=O)c2cccnc21`, the survival is inactive: 86%.

Regarding `Cc1ccn2c(Nc3ccccc3C)c(-c3ccccn3)nc2c1`, the survival is active: 11%.

In the case of `COCCCNC(=O)C1CCCN(C(=O)c2cnn(-c3ccc(F)cc3)c2-n2cccc2)C1` (stereo not drawn), the survival was inactive: 94%.

`Cc1cc(C)c(CSc2nnc(C)n3c2cc2occc23)c(C)c1`: the survival is active: 40%.

Take `CCN(Cc1ccccc1)C(=O)c1nc(-c2cccc(F)c2)n2c1CCCCC2`: the survival was inactive: 97%.

With `O=C(NC1CCCCC1)c1cc(Nc2cccc(C(F)(F)F)c2)nc2ccccc12`, the survival is inactive: 81%.

`COc1cc(NC(=O)c2noc3c2CSc2ccccc2-3)cc(OC)c1OC`: the survival was inactive: 103%.

With `Cc1ccn2c(=O)cc(CSc3nnc(NC(=O)c4ccccc4Cl)s3)nc2c1`, the survival was inactive: 86%.

With `COc1cc(C(=O)Nc2nc3nc(-c4ccccc4)cc(=O)n3[nH]2)cc(OC)c1OC`, the survival was inactive: 71%.

As for `Cc1ccc(SCc2nc(-c3ccc(C(=O)NCc4ccc(Cl)cc4)cc3)oc2C)cc1`, the survival was inactive: 76%.

Turning to `COc1ccc(CNC(=O)c2cc3c(=O)[nH]c4ccccc4c3s2)cc1`, the survival is inactive: 86%.

Consider `Cc1cccc(N2CCN(C(=O)NCc3noc4ccccc34)CC2)c1C`, for which the survival is inactive: 53%.

With `CCOC(=O)c1ccccc1NC(=O)CCOc1ccccc1`, the survival is active: 22%.

For the compound `COCCc1nn2c(=O)cc(COC(=O)c3ccc(OC)c(OC)c3)nc2s1`, the survival is inactive: 108%.

`Cc1ccc(C)n1-c1c(C(=O)NCCC(C)C)sc2ncccc12`: the survival was inactive: 92%.

Take `CCOC(=O)C1CCN(C(=O)Cn2c(=O)cc(C)c3c(C)nn(C)c32)CC1`: the survival was inactive: 69%.

On to `Cc1oc2ncn(CC(C)C)c(=O)c2c1C(=O)N1CCN(c2cccc(C(F)(F)F)c2)CC1`, for which the survival was inactive: 85%.

As to `CCc1nn(-c2ccccc2)c2nc(-c3cccc(OC)c3)c3cc(OC)c(OC)cc3c12`, the survival was inactive: 75%.

As for `Cc1cccc(-n2ncc3c(Nc4ccc(Oc5ccc(Cl)cc5)cc4)ncnc32)c1`, the survival was inactive: 86%.

With `O=C1C2C3C=CC(C3)C2C(=O)N1C1CC2CCC1C2` (stereo not drawn), the survival was inactive: 73%.

As for `COc1ccc(C(=O)NCCn2cc(SCC(=O)Nc3cccc(C)c3)c3ccccc32)cc1`, the survival is inactive: 60%.

Take `CCOCCCNC(=O)NC(C)c1c(-n2cccc2)sc2c1CCN(CC)C2` (stereo not drawn): the survival was inactive: 119%.

On to `CCc1nnc(NC(=O)CCC(=O)N2CC3(C)CC2CC(C)(C)C3)s1` (stereo not drawn), for which the survival is inactive: 106%.

As to `COc1ccc(OC)c(S(=O)(=O)N2CCC(c3ccncc3)CC2)c1`, the survival is inactive: 122%.

As for `CCc1ccc(-n2c(SCc3ccccc3F)nc3[nH]ncc3c2=O)cc1`, the survival was inactive: 86%.
